# Measurements published in PubChem BioAssay (NCATS).
# This list was built around the results that the source calls inconclusive (neither active nor inactive); the mix of calls is not that of the screen. For some assays here: Potencies of inconclusive entries are left out as doubtful fits. Activity calls are given as the source filed them. Unless noted, the call rests on the fitted dose curve; in most records, active means well fitted curve in the direction sought with a large enough effect; inconclusive means small, poorly fitted or top-dose-only effect, or another doubt; inactive means no such curve, though single readings can be large; an effect the other way counts as inactive or inconclusive.
# Tests used:
# [1] = qHTS of pediatric cancer cell lines to identify multiple opportunities for drug repurposing: Primary screen for OHS-50 cells (AID 1347103); further: potency means the concentration at half of the fitted maximal effect; nearly all actives have a fitted effect of over 40% in size
# Method in brief: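 Cells (500-1,000/well) rested 5 h, then received compounds for 48 h; metabolically active cells were measured by CellTiter-Glo luminescence. Final concentrations spanned up to 46 µM (MIPE, 11-point) or 0.59 nM-46 µM (NPC, 8-point) in primary screens, 11-point in follow-ups.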
# [2] = qHTS to identify inhibitors of the type 1 interferon - major histocompatibility complex class I in skeletal muscle: primary screen against the NCATS Mechanism Interrogation Plate v5.0 (MIPE) Libary (AID 1347411); settings: iHSKM cells + IFN-b, HiBiT-tagged MHC-I luminescence, 24 h; activity change, negative = inhibition: at 45.8 µM (top of the series); further: potency means the concentration at half of the fitted maximal effect; nearly all actives have a fitted effect of over 65% in size
# Method in brief: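 IFN-beta-driven (4 ng/ml) HLA-B-HiBit expression in CRISPR-tagged C25cl48 myoblasts; compounds 11-pt, 1:3, max 46 uM, 24 hr exposure; lytic NanoLuc complementation luminescence.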
# [3] = Quantitative High-Throughput drug screen in 47 multiple myeloma cell lines against the NCATS MIPE library collection: AMO1_DSMZ cell viability assay (AID 1918927; further: nearly all actives have a fitted effect of over 30% in size; further: potency means the concentration at half of the fitted maximal effect)
# Method in brief: (§1)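 Myeloma cells (500 per well) were exposed to MIPE 4.0 compounds by pin transfer and incubated 48 hours at 37C, 5% CO2. Viability was read as ATP by CellTiter-Glo luminescence, normalised to DMSO (100%) and media-only (0%) wells.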
# [4] = Quantitative High-Throughput drug screen in 47 multiple myeloma cell lines against the NCATS MIPE library collection: KMS27_JCRB cell viability assay (AID 1918970); settings: KMS27 myeloma cells, CellTiter-Glo ATP viability, 48 h; viability (% of DMSO): at 45.8 µM (top of the series); further: nearly all actives have a fitted effect of over 30% in size; further: potency means the concentration at half of the fitted maximal effect
# Method in brief: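 ATP-based viability (CellTiter-Glo luminescence) is measured in cells treated 48 h with approved and investigational drugs at 37 °C. Controls are DMSO-only wells for full viability and media-only wells for none.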
# [5] = Quantitative High-Throughput drug screen in 47 multiple myeloma cell lines against the NCATS MIPE library collection: OCIMY7_PLB cell viability assay (AID 1918987); settings: OCI-MY7 myeloma viability, CellTiter-Glo ATP, 48 h; viability (% of DMSO): at 45.8 µM (top of the series); further: potency means the concentration at half of the fitted maximal effect; nearly all actives have a fitted effect of over 65% in size
# Method in brief: (§2)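 500 cells/well; MIPE 4.0 drugs pin-transferred; 48 h, 37C, 5% CO2. CellTiter-Glo, 5 min RT, luminescence. Controls: DMSO 100%, media 0%.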
# [6] = Quantitative High-Throughput drug screen in 47 multiple myeloma cell lines against the NCATS MIPE library collection: XG1_PLB cell viability assay (AID 1919866); further: nearly all actives have a fitted effect of over 35% in size; further: potency means the concentration at half of the fitted maximal effect
# Method in brief: as §2
# [7] = Quantitative High-Throughput drug screen in 47 multiple myeloma cell lines against the NCATS MIPE library collection: PCM6_Riken cell viability assay (AID 1919870); further: potency means the concentration at half of the fitted maximal effect; nearly all actives have a fitted effect of over 30% in size
# Method in brief: as §2
# [8] = qHTS of pediatric cancer cell lines to identify multiple opportunities for drug repurposing: Primary screen for U-2 OS cells (AID 1347096); further: nearly all actives have a fitted effect of over 50% in size; further: potency means the concentration at half of the fitted maximal effect;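 on activity change, negative = cytotoxic: plate controls were DMSO wells for no effect and bortezomib positive control wells for full effect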
# Method in brief: (§3)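 Viability after 48 h compound treatment at 37C, 500-1,000 cells/well, read as ATP luminescence with CellTiter-Glo. Primary screens used 11-point (MIPE, 0.78 nM-46 µM) or 8-point (NPC, 0.59 nM-46 µM) final concentrations; follow-up screens used 11-point dilutions.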
# [9] = qHTS of pediatric cancer cell lines to identify multiple opportunities for drug repurposing: Primary screen for Saos-2 cells (AID 1347097); settings: Saos-2 viability, CellTiter-Glo ATP luminescence, 48 h; activity change, negative = cytotoxic: at 46 µM (top of the series); further: potency means the concentration at half of the fitted maximal effect; nearly all actives have a fitted effect of over 40% in size
# Method in brief: (§4)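 Luminescence from CellTiter-Glo served as readout of metabolically active cells after 48 h compound exposure. Titrations: MIPE 11-point, from 0.78 nM; NPC 8-point, from 0.59 nM (final). Concentration-response curves came straight from the primary screen.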
# [10] = qHTS of pediatric cancer cell lines to identify multiple opportunities for drug repurposing: Primary screen for RD cells (AID 1347104); further: potency means the concentration at half of the fitted maximal effect; nearly all actives have a fitted effect of over 55% in size
# Method in brief: as §4
# [11] = qHTS of pediatric cancer cell lines to identify multiple opportunities for drug repurposing: Primary screen for control Hh wild type fibroblast cells (AID 1347106); further: potency means the concentration at half of the fitted maximal effect; nearly all actives have a fitted effect of over 55% in size
# Method in brief: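 Cells (500-1,000/well) in growth media were settled 5 h at 37 degrees C, then given compounds for 48 h. Viability was read as CellTiter-Glo luminescence. Primary runs used MIPE at 11 points (0.78 nM-46 µM) and NPC at 8 points (0.59 nM-46 µM); follow-ups used 11 points.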
# [12] = qHTS of pediatric cancer cell lines to identify multiple opportunities for drug repurposing: Confirmatory screen for NB-EBc1 cells (AID 1347115);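 further: cells exposed to compound for 48 h before the viability read; nearly all actives have a fitted effect of over 45% in size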; further: potency means the concentration at half of the fitted maximal effect; on activity change, negative = cytotoxic: on the % scale 0 is the no-effect control and ±100 the full control effect
# Method in brief: as §3
# [13] = qHTS of pediatric cancer cell lines to identify multiple opportunities for drug repurposing: Confirmatory screen for SJ-GBM2 cells (AID 1347116); further: nearly all actives have a fitted effect of over 60% in size; further: potency means the concentration at half of the fitted maximal effect;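 on activity change, negative = cytotoxic: plate controls were DMSO for no effect and bortezomib for full effect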
# Method in brief: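 Viability measured as metabolically active cells via CellTiter-Glo luminescence following 48 hours of compound exposure, 11-point dilutions in confirmatory testing. 500-1,000 cells/well plated 5 hours before dosing; controls were DMSO and 2.3 µM bortezomib.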
# [14] = Quantitative High-Throughput drug screen in 47 multiple myeloma cell lines against the NCATS MIPE library collection: OCIMY1_PLB cell viability assay (AID 1918979); further: potency means the concentration at half of the fitted maximal effect; nearly all actives have a fitted effect of over 35% in size
# Method in brief: as §2
# [15] = Quantitative High-Throughput drug screen in 47 multiple myeloma cell lines against the NCATS MIPE library collection: OPM2_DSMZ cell viability assay (AID 1919872); further: potency means the concentration at half of the fitted maximal effect; nearly all actives have a fitted effect of over 30% in size
# Method in brief: as §1
# MKL-1 = assay: qHTS assay to identify novel small-molecules to repurpose for Merkel cell carcinoma treatment (AID 1296009); settings: MCC and control cell lines, CellTiter-Glo viability, 72 h; activity change, negative = cytotoxicity: at 46 µM (top of the series); further: potency means the concentration at half of the fitted maximal effect; nearly all actives have a fitted effect of over 60% in size
# Method in brief: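 CellTiter-Glo luminescence after 72 hr compound exposure at 37 degree celsius gave cell viability. Libraries NPC and MIPE were run as 8- and 11-point dose responses; RLUs normalized to DMSO (negative) and no-cell (cytotoxicity) controls.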
# [16] = qHTS Assay for Lipid Storage Modulators (AID 1519; calls by dose curve; further: on the % scale 0 is the no-effect control and ±100 the full control effect); settings: Drosophila S3 cells, BODIPY lipid droplet/cell ratio, laser cytometry, cells loaded with oleic acid
# Method in brief: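 Cells seeded at 5,000 per well were treated with compounds over a concentration series and loaded with oleic acid (400 uM, as added). Lipid droplet fluorescence (488 nm excitation, 500-530 nm channel) was read by laser-scanning cytometry and normalized to 20 uM Triacsin C.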
# [17] = A High-Content qHTS Against Drug Library for the Identification of Small Molecules that Inhibit DYT1 Early Onset Primary Dystonia-Associated Cell Pathology (AID 1645839; calls by dose curve; further: potency means the concentration at half of the fitted maximal effect)
# Method in brief: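 Cells were seeded and left for 24 h, then dosed with compound alongside tetracycline induction of mutant EGFP-TorsinA. They were incubated for 48 h, fixed in 4% paraformaldehyde, permeabilized and imaged for mislocalization (%pathology) and cell count.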
# astro = assay: Drug repurposing screens with cells derived from glioblastoma tumor samples (AID 1345199); settings: viability, ATP luminescence, 48 h; series mostly up to 45.9 µM; further: potency means the concentration at half of the fitted maximal effect; nearly all actives have a fitted effect of over 40% in size
# Method in brief: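 Primary testing used CD133+ neurospheres from four GBM patients, seven concentrations, 48 h exposure and ATP-based viability; confirmation added three slower-growing patient lines.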
# [18] = NFAT Signaling Pathway (AID 444; active means well fitted curve in either direction with a large enough effect, not every such curve was filed as active; inconclusive means small, poorly fitted or top-dose-only effect, or another doubt;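 further: carbachol stimulus at about its EC50 of 1 µM final; on the % scale 0 is the no-effect control and ±100 the full control effect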); settings: Jurkat NFAT-bla M1, carbachol, beta-lactamase ratio, 5 h; at 17.2 µM (top of the series)
# Method in brief: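 Jurkat cells with NFAT-driven β-lactamase reporter and co-expressed M1 receptor, stimulated with carbachol (final 1 uM, ~EC50), compound titration, 5 h at 37 °C. CCF4 loaded 1 h at RT; 460/530 nm ratio gave %activity and AC50.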
# Tags describe the fitted curve by direction and shape.
smiles,measurement,setting,value
CS(=O)(=O)c1ccc(-c2cnc(N)c(C(=O)Nc3ccccc3)n2)cc1,Potency,[1],"inconclusive [cytotoxic, partial curve]"
same,Potency,[2],"inconclusive [inhibitor, partial curve, poor fit]"
same,Potency,[3],"inconclusive [cytotoxic, full curve]"
same,Potency,[4],"inconclusive [cytotoxic, partial curve, poor fit]"
same,Potency,[5],active: 1.66 µM
same,Potency,[6],"inconclusive [cytotoxic, full curve, poor fit]"
same,Potency,[7],"inconclusive [cytotoxic, partial curve, poor fit]"
Cc1ccccc1N1C(=O)c2cc(S(N)(=O)=O)c(Cl)cc2NC1C (centres undefined),Potency,[3],inactive
same,Potency,[4],"inconclusive [cytotoxic, partial curve, poor fit]"
same,Potency,[5],"inconclusive [rising, full curve, poor fit]"
same,Potency,[6],inactive
O=C(Cc1ccc(-c2ccc(OCCN3CCOCC3)cc2)cn1)NCc1ccccc1,Potency,[8],active: 3.72 µM
same,Potency,[9],active: 0.0148 µM
same,Potency,[10],active: 0.0526 µM
same,Potency,[11],"inconclusive [cytotoxic, partial curve]"
same,Potency,[12],"inconclusive [cytotoxic, full curve]"
same,Potency,[13],"inconclusive [cytotoxic, full curve]"
same,Potency,[2],"inconclusive [inhibitor, full curve]"
same,viability (% of DMSO),[4],inconclusive: 10.9% [cytotoxic]
same,Potency,[14],"inconclusive [cytotoxic, full curve]"
same,Potency,[6],"inconclusive [cytotoxic, full curve]"
same,Potency,[15],active: 0.0372 µM
same,Potency,MKL-1,"inconclusive [inhibitor, partial curve, poor fit]"
Nc1ccn([C@H]2CC[C@@H](CO)O2)c(=O)n1,Potency,[3],inactive
same,Potency,[4],"inconclusive [rising, full curve, poor fit]"
same,Potency,[14],inconclusive
same,Potency,[6],"inconclusive [cytotoxic, partial curve, poor fit]"
same,Potency,[7],"inconclusive [cytotoxic, full curve, poor fit]"
CC(C)NCC(O)COc1cccc2[nH]ccc12 (centres undefined),"activity change, negative = inhibition","[16]; activity change, negative = inhibition: at 57.5 µM (top of the series)",inconclusive: 2.26%
same,"activity change, negative = inhibition",[16]; at 57.5 µM (top of the series),inactive: 10.5%
same,Potency,[9],"inconclusive [cytotoxic, full curve, poor fit]"
CCOC(=O)COc1ccc2c(C)c(CCN(CC)CC)c(=O)oc2c1Cl,Potency,[8],inactive
same,Potency,MKL-1,"inconclusive [inhibitor, single point]"
CC1=C(C(=O)OC(C)C)C(c2cccc([N+](=O)[O-])c2)C(C(=O)OC2CN(C(c3ccccc3)c3ccccc3)C2)=C(N)N1 (centres undefined),Potency,[8],"inconclusive [cytotoxic, single point]"
same,Potency,[1],"inconclusive [cytotoxic, single point]"
same,Potency,[17],"inconclusive [inhibitor, partial curve, poor fit]"
same,Potency,MKL-1,active: 21.1 µM
same,Potency,astro,"inconclusive [inhibitor, single point]"
O=C(CCCN1CC=C(n2c(=O)[nH]c3ccccc32)CC1)c1ccc(F)cc1,"activity change, negative = inhibition",[18],inconclusive: -59.6% [inhibitor]
same,Potency,[8],"inconclusive [cytotoxic, single point]"
same,Potency,[10],"inconclusive [cytotoxic, partial curve, poor fit]"
same,Potency,[11],"inconclusive [cytotoxic, single point]"
same,Potency,[12],inactive
same,Potency,[13],inactive
